Data reported in PMC10406836.
No constants are given. Whether binding was seen depends on the method and setting. Binding seen in cells or lysates may run through a third protein. Some results given as binding are weak or reduced against the parent protein; the word gives no strength. For some of these results: Where a sequence is shown, tags or fusion partners need not be part of it. Each block holds one molecule with its values, some of them ahead of it.

The chains behind the UniProt entries cited, without tags or fusion partners.
UniProt Q13257: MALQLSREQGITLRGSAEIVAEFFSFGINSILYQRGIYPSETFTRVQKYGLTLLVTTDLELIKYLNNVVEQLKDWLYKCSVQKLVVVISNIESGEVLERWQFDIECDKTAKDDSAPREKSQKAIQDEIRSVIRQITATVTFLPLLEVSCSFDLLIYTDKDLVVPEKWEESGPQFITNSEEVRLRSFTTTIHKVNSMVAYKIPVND

Key:
[1] = target: T1, RNF8 (overexpressed in GSC TS543) (human) (UniProt O76064); assay: co-IP; RNF8 IP from RNF8 overexpressing GSC TS543 lysates; Western blot of MAD2
T1 sequence: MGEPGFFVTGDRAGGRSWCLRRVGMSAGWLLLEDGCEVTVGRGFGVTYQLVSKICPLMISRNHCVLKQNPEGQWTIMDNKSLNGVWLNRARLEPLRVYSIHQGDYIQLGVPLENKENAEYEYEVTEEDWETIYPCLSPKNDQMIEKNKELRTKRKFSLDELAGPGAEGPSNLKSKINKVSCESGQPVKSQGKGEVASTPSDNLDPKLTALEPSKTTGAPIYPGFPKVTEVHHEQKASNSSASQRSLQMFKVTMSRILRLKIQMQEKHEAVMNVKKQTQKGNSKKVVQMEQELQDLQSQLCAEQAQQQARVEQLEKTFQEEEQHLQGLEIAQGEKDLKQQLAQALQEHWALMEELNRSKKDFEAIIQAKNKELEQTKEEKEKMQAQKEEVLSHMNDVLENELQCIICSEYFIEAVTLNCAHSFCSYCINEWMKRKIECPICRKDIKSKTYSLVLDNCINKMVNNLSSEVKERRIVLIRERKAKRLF

myc-BirA*-RNF8 (human) = target: T2, myc-BirA*-RNF8 (human) (UniProt O76064); assay: co-IP; myc IP from HEK293T transfected with BirA*-RNF8 or GFP; Western blot of MAD2 and p31^comet
T2 sequence: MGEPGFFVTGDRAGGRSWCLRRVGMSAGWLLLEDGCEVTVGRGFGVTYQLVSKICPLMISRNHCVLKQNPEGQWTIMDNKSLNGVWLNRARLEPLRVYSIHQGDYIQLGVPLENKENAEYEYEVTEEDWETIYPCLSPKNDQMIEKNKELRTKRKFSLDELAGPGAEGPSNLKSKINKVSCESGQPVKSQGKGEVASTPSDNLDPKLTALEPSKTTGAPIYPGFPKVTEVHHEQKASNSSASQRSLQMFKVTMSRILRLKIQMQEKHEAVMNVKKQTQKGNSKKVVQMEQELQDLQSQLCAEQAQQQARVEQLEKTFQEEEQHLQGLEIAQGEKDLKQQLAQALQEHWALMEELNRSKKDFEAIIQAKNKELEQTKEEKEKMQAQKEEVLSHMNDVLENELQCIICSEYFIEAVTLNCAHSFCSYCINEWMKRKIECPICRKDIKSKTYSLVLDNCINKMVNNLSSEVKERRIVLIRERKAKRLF

[2] = target: T3, myc-tagged *RING (RNF8^C403S) (human) (UniProt O76064); assay: co-IP; myc IP from HEK293T lysates overexpressing myc-tagged RNF8 or its mutants; Western blot of endogenous MAD2 or of co-expressed flag-MAD2
T3 sequence: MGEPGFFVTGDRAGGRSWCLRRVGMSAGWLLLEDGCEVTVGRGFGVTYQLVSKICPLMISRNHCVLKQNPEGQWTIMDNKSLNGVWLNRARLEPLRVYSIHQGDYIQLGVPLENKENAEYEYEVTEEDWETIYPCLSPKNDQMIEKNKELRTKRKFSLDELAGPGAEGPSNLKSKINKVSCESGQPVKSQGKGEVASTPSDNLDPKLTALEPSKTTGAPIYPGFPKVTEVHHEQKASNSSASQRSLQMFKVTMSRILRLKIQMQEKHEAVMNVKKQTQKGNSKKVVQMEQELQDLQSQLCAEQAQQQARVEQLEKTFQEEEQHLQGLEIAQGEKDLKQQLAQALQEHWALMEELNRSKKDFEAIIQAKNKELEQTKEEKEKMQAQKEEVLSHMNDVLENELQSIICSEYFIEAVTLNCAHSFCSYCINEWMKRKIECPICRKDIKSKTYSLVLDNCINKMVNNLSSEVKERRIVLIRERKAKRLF

myc-tagged RNF8 (human) [3] = target: T4, myc-tagged RNF8 (human) (UniProt O76064); assay: as above
T4 sequence: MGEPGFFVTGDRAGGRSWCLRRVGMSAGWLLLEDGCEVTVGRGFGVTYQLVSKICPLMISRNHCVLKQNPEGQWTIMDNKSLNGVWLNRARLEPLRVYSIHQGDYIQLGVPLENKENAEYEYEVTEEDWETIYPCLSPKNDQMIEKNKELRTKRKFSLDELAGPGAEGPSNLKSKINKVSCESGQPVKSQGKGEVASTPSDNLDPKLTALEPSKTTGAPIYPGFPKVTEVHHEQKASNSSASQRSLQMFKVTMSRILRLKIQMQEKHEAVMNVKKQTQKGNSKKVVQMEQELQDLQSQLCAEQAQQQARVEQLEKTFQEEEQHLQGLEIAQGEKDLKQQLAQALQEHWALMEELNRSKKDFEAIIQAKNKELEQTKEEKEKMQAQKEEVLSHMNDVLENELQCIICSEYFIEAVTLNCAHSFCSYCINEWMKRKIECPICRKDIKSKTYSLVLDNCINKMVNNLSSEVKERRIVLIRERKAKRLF

[4] = target: T5, myc-tagged *FHA (RNF8^R42A) (human) (UniProt O76064); assay: as above
T5 sequence: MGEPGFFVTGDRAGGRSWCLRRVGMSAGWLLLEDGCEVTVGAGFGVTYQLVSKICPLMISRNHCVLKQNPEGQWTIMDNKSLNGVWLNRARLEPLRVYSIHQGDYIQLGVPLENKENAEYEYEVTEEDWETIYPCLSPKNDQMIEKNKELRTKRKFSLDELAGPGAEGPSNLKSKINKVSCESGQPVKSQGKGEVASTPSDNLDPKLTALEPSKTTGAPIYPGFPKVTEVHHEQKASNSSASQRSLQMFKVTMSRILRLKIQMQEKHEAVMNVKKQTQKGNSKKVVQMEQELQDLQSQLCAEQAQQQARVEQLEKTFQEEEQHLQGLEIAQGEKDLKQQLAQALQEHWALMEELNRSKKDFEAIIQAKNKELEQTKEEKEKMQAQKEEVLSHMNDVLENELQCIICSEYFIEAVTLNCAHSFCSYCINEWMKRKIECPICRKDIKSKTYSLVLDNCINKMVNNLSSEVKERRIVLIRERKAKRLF

myc-tagged RNF8 (human) [5] = target: T4, myc-tagged RNF8 (human); assay: condition: only with co-expression of flag-p31^comet; co-IP; myc IP from HEK293T lysates overexpressing RNF8-myc together with flag-p31^comet; Western blot of endogenous MAD2
[6] = target: T6, p31^comet (human (endogenous in HEK293T)) (UniProt Q15013); assay: co-IP; p31^comet IP from HEK293T lysates transfected with different amounts of RNF8-myc plasmid; Western blot of endogenous MAD2
T6 sequence: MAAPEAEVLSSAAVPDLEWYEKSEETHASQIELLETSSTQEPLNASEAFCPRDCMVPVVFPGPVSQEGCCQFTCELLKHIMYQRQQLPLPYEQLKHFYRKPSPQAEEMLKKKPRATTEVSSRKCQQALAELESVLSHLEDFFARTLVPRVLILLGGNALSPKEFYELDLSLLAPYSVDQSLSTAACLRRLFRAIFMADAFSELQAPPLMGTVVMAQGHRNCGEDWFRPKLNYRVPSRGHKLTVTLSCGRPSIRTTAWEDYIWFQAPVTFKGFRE

[7] = target: MAD2 (human (endogenous in HEK293T)) (UniProt Q13257); assay: co-IP; myc IP from HEK293T lysates overexpressing RNF8-myc together with flag-p31^comet; Western blot of endogenous MAD2
flag-MAD2 = flag-MAD2 (UniProt Q13257); assay: co-IP; reverse co-IP: flag IP of flag-tagged MAD2 from cells with myc-tagged RNF8, *FHA or *RING (Supplementary Fig. S2A)
[8] = target: MAD2 (human (endogenous in HEK293T)) (UniProt Q13257); assay: co-IP; MAD2 IP from HEK293T lysates, endogenous proteins, with or without 200 ng/ml nocodazole (16 h); Western blot of RNF8

binding [1]: binds
Molecule: MAD2 (endogenous, GSC TS543) (from UniProt Q13257 1-205)

binding (myc-BirA*-RNF8 (human)): binds
binding [2]: no binding
binding (myc-tagged RNF8 (human) [3]): binds
binding [4]: binds
binding (myc-tagged RNF8 (human) [5]): no binding
binding [6]: binds
Molecule: MAD2 (from UniProt Q13257 1-205)

binding (myc-tagged RNF8 (human) [3]): binds
Molecule: flag-MAD2 (from UniProt Q13257 1-205)

binding [7]: binds
B1: flag-p31^comet (protein, UniProt Q15013 1-274)
chain: MAAPEAEVLSSAAVPDLEWYEKSEETHASQIELLETSSTQEPLNASEAFCPRDCMVPVVFPGPVSQEGCCQFTCELLKHIMYQRQQLPLPYEQLKHFYRKPSPQAEEMLKKKPRATTEVSSRKCQQALAELESVLSHLEDFFARTLVPRVLILLGGNALSPKEFYELDLSLLAPYSVDQSLSTAACLRRLFRAIFMADAFSELQAPPLMGTVVMAQGHRNCGEDWFRPKLNYRVPSRGHKLTVTLSCGRPSIRTTAWEDYIWFQAPVTFKGFRE

binding (flag-MAD2): binds
B2: myc-tagged RNF8 (protein, UniProt O76064-1 1-485)
chain: MGEPGFFVTGDRAGGRSWCLRRVGMSAGWLLLEDGCEVTVGRGFGVTYQLVSKICPLMISRNHCVLKQNPEGQWTIMDNKSLNGVWLNRARLEPLRVYSIHQGDYIQLGVPLENKENAEYEYEVTEEDWETIYPCLSPKNDQMIEKNKELRTKRKFSLDELAGPGAEGPSNLKSKINKVSCESGQPVKSQGKGEVASTPSDNLDPKLTALEPSKTTGAPIYPGFPKVTEVHHEQKASNSSASQRSLQMFKVTMSRILRLKIQMQEKHEAVMNVKKQTQKGNSKKVVQMEQELQDLQSQLCAEQAQQQARVEQLEKTFQEEEQHLQGLEIAQGEKDLKQQLAQALQEHWALMEELNRSKKDFEAIIQAKNKELEQTKEEKEKMQAQKEEVLSHMNDVLENELQCIICSEYFIEAVTLNCAHSFCSYCINEWMKRKIECPICRKDIKSKTYSLVLDNCINKMVNNLSSEVKERRIVLIRERKAKRLF

binding (flag-MAD2): no binding
B3: myc-tagged *RING (RNF8^C403S) (protein, UniProt O76064-1 1-485)
chain: MGEPGFFVTGDRAGGRSWCLRRVGMSAGWLLLEDGCEVTVGRGFGVTYQLVSKICPLMISRNHCVLKQNPEGQWTIMDNKSLNGVWLNRARLEPLRVYSIHQGDYIQLGVPLENKENAEYEYEVTEEDWETIYPCLSPKNDQMIEKNKELRTKRKFSLDELAGPGAEGPSNLKSKINKVSCESGQPVKSQGKGEVASTPSDNLDPKLTALEPSKTTGAPIYPGFPKVTEVHHEQKASNSSASQRSLQMFKVTMSRILRLKIQMQEKHEAVMNVKKQTQKGNSKKVVQMEQELQDLQSQLCAEQAQQQARVEQLEKTFQEEEQHLQGLEIAQGEKDLKQQLAQALQEHWALMEELNRSKKDFEAIIQAKNKELEQTKEEKEKMQAQKEEVLSHMNDVLENELQSIICSEYFIEAVTLNCAHSFCSYCINEWMKRKIECPICRKDIKSKTYSLVLDNCINKMVNNLSSEVKERRIVLIRERKAKRLF

binding (flag-MAD2): binds
B4: myc-tagged *FHA (RNF8^R42A) (protein, UniProt O76064-1 1-485)
chain: MGEPGFFVTGDRAGGRSWCLRRVGMSAGWLLLEDGCEVTVGAGFGVTYQLVSKICPLMISRNHCVLKQNPEGQWTIMDNKSLNGVWLNRARLEPLRVYSIHQGDYIQLGVPLENKENAEYEYEVTEEDWETIYPCLSPKNDQMIEKNKELRTKRKFSLDELAGPGAEGPSNLKSKINKVSCESGQPVKSQGKGEVASTPSDNLDPKLTALEPSKTTGAPIYPGFPKVTEVHHEQKASNSSASQRSLQMFKVTMSRILRLKIQMQEKHEAVMNVKKQTQKGNSKKVVQMEQELQDLQSQLCAEQAQQQARVEQLEKTFQEEEQHLQGLEIAQGEKDLKQQLAQALQEHWALMEELNRSKKDFEAIIQAKNKELEQTKEEKEKMQAQKEEVLSHMNDVLENELQCIICSEYFIEAVTLNCAHSFCSYCINEWMKRKIECPICRKDIKSKTYSLVLDNCINKMVNNLSSEVKERRIVLIRERKAKRLF

binding [8]: binds
B5: RNF8 (endogenous) (protein, UniProt O76064-1 1-485)
chain: MGEPGFFVTGDRAGGRSWCLRRVGMSAGWLLLEDGCEVTVGRGFGVTYQLVSKICPLMISRNHCVLKQNPEGQWTIMDNKSLNGVWLNRARLEPLRVYSIHQGDYIQLGVPLENKENAEYEYEVTEEDWETIYPCLSPKNDQMIEKNKELRTKRKFSLDELAGPGAEGPSNLKSKINKVSCESGQPVKSQGKGEVASTPSDNLDPKLTALEPSKTTGAPIYPGFPKVTEVHHEQKASNSSASQRSLQMFKVTMSRILRLKIQMQEKHEAVMNVKKQTQKGNSKKVVQMEQELQDLQSQLCAEQAQQQARVEQLEKTFQEEEQHLQGLEIAQGEKDLKQQLAQALQEHWALMEELNRSKKDFEAIIQAKNKELEQTKEEKEKMQAQKEEVLSHMNDVLENELQCIICSEYFIEAVTLNCAHSFCSYCINEWMKRKIECPICRKDIKSKTYSLVLDNCINKMVNNLSSEVKERRIVLIRERKAKRLF
